Sequences with one replicate were seen in a single cluster, so their values are uncertain.
Tested on: ATP
Test: switch fluorescence ratio, 500 uM ATP over buffer (Cy3 cluster intensity, sum of 5 cycles each) (fold (ratio)); higher = stronger signal-on switching upon ATP binding; sequences stand for … in TCGTCGGCAGCGTCAGATGTGTATAAGAGACAGTTTTTTTTTTTTTTTTTTTTTTTTT…TC
Settings: aptamer strand: ATP DNA aptamer (quencher-CACCTGGGGGAGTATTGCGGAGGAAGG + anchor), 100 nM annealed; ATP concentration: 500 uM; one replicate
Outline: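 Between each of five buffer/ATP cycles, the flow-cell was stripped with NaOH and re-annealed. Each cycle imaged Cy3-labelled switching-strand clusters, annealed to 100 nM quencher-labelled ATP aptamer on a modified Illumina MiSeq flow-cell, first in selection buffer and then after 15 min with 500 uM ATP at 22 °C. The fluorescence ratio is summed target-cycle over summed buffer-cycle Cy3 intensity per cluster, averaged per switch-domain sequence, with clusters outside 100-1000 RFU excluded.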
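Also: ATP exposure 15 min at 22 °C before imaging.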

Sequence	switch fluorescence ratio
TATGTCACCG	1.02
CTGGATGCAT	1.16
TCGGCATTTA	1.04
AGATGACTCA	0.962
AATGCAGTA	0.981
TCGTCACCGG	1.04
GCCCTTTGAA	0.947
TATCTGTG	0.992
TCAGAATGGA	1.02
CTACTTAAGC	1.04
TCAAGGATTC	0.993
CTTTCCTGAT	0.985
CGGGAATCGC	0.987
GGAGCCGACT	0.999
CCAATGACTT	1.1
TTGGGTTCTG	1.02
TAATTGTTT	1
ACCGGTAAGA	1.03
TCTGTGCCTC	1.06
TAGAAGATAT	1
GACGCAGGTA	1.49
GTTTCCAGCA	1.02
TGTTGTTCAC	1
AACTAGCACA	1.09
ATACAAGCCG	1.37
CAGATTGCAC	1.02

Sequence	switch fluorescence ratio
TTACGAGTG	1.02
ACGCCAACGG	0.984
TGCTTAGAAA	0.991
CCCTTCCAAA	1
TTGCCTTCAT	1.1
TATTTGTTAA	0.984
CATTAGGCGT	0.96
TATTTGTTGT	0.967
AATGATATTT	1.02
AGCATTTCAT	0.952
AGGCCGGTTC	0.955
TTAGCAACCT	1.69
ACGTGAGAA	1.05
TAAGTTTCGG	1.01
CTCCTTTTCG	1.04
GTTATTGTTG	0.982
GAAAGTACTC	1.22
GATAGGTCGA	0.953
AAATGTATTT	1.01
GTAATAGGCC	1.07
GGTAGATAGC	0.969
CGTCTATGCT	1
TTAATTGGA	1.03
ATGAACATCA	1.04
CATAGAGAAT	0.978
CGTAAGTGCT	0.999

Sequence	switch fluorescence ratio
ATGCCCCTGG	1.07
TTCCATTGGG	0.975
TACGCGGCG	0.997
ACTTCGCCCA	1.45
CCGGCCCCTA	1.24
CTAACGTCAT	1.1
TTTCGTATAG	1.28
TTAGCACTGG	1.06
TACATTCCTT	1.05
CAATTGGCG	0.988
CCTAGAGTGC	1.02
TTACTTATGG	1.02
AGGCGTCTGT	1.02
GGGGTTCTG	1
AGATGTCAA	0.959
CCCTTTTATG	1.02
TCCATGGTTG	1.02
TGGATTGATC	0.965
TGACCCGAGC	1.03
CCTGCATAGT	1.33
CGATTGGACG	1.16
TATCGGCGGA	1.01
GTGTATCATA	0.998
GCTTTCATGA	1.01
CGCCCGTGGC	0.953
CATACTGGGA	1.07

Sequence	switch fluorescence ratio
GTATCGCTT	1.01
TGGGGTATGA	1
GGGGCTGTGT	0.963
AACTGATGCA	0.951
TGGTTTACCG	1
GCAAGGCGCA	1.05
CGGGTTTAGT	1
GAGTCATGTA	0.999
CGCCAAGTGC	1.39
TTCCTTTTGG	0.975
ACGTCGAACT	1.04
CAGTGAGGAG	0.989
TCTATTCATC	0.999
GTTGTTTCGA	0.986
TGTTTGAGAG	1.04
CCGGATGTT	1.23
GCGGCAGCTG	0.943
CGCTATAGGC	1.04
GAGTCTGTTT	0.964
GAATGTCTCC	1.02
TCGGAGTCAT	1.37
CGCATAAG	1.42
AGATTCACGT	1.01
TTCCGTGTC	1.08
CGGGTGCTCG	0.954
AGCGGGGATT	1.07

Sequence	switch fluorescence ratio
GGCTCTTATC	1.05
GGCGAGAAGG	0.989
TAAGTAGACC	0.973
ATTTGAGGTC	1.05
CGCATTTGGG	1.04
CTAGGGGCT	0.99
GATAGACAGA	1.03
GTTTATCTAC	1.02
GCGCGGCCGA	1.01
TTTAAATTTC	1.03
GTAATGACCC	1.66
CTGAGTTATG	0.958
CAGATACTA	1.01
TTTCTTTTTC	0.986
TGGCTGCTAA	0.965
AACCGCGGTC	1.01
GAGAGTGATT	1.01
CCGGGTTCT	1.03
CGCGAGTTTG	1
ATGTGCCGA	1.12
CGAATTGTAC	1.07
ACTCTGGTTC	1.09
TAATGCGGAA	1.08
GAGATCTACT	0.987
ATGGAGTGTA	0.997
TTATGAAGTC	0.985

Sequence	switch fluorescence ratio
CGCGTCTTCC	1.07
CATGCCTTTC	1.23
CGTATATCCC	1.09
AACTGACTGT	1.08
GCTGACCTGA	1.03
TTCGGCGTCC	0.983
TAGTCCGCTA	2.84
TCTTGATAAT	0.99
AGTTCGCTCG	0.922
GTGATTCCGG	1
TTCCGCCGGC	1.27
CAGGCCATA	1.01
GAGGCTTTGA	1.01
GGCAAGTTGG	1.16
CGAATTTCTG	1.01
AGCAGCACCC	1.08
AAAGATCAGG	1
AACAGATATT	1.06
CATCCCGCGG	1.31
CACATGTTC	1.01
TCAAAAAAAG	0.987
CCCCACGGGA	0.986
GGCGTATTCT	1.03
CATAGCGTCT	0.935

From the supplement of paper PMC10126150
